Values quoted from earlier work as cited in US20240342171A1, “DISCOVERY OF A F-ATP SYNTHASE INHIBITOR FOR THE TREATMENT OF MYCOBACTERIUM ABSCESSUS DISEASES” (priority 2021, published 2024).

Test system: M. abscessus

Structure (SMILES)	higher potency against M. tuberculosis than M. abscessus
COc1nc2ccc(Br)cc2cc1[C@@H](c1ccccc1)[C@@](O)(CCN(C)C)c1cccc2ccccc12 [BDQ, bedaquiline]	100 ×
COc1cc([C@](O)(CCN(C)C)[C@@H](c2cc3cc(Br)ccc3nc2OC)c2cc(OC)nc(OC)c2OC)cc(OC)n1 [TBAJ876]	100 ×
